Results reported in PubChem BioAssay AID1508624 (National Center for Advancing Translational Sciences (NCATS), 2021).
Among all 48,000 compounds or so, about 120 (0.25%) were called active. Not shown: some 4% with an inconclusive outcome. Calls follow the shape of the dose curve; as a rule, active = well fitted activation curve with a large enough effect; inconclusive = small, poorly fitted or top-dose-only effect, or another doubt; inactive = no such curve, though single readings can be large or run the other way. The list shows a part of the results.

assay: Primary qHTS for Identification of Small Molecule Activators of Huntingtin-Antisense Promoter Activity; details: HEK293 HTT-AS promoter firefly luciferase reporter, 24 h; series mostly up to 57.5 µM; activity change, positive = activation: at the top concentration; also: nearly all actives have a fitted effect of over 55% in size
Summary of the method: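 Quantitative HTS used concentration series of up to 57.5 uM final on HEK293 luciferase reporter cells, 24 h at 37 degrees C. Readout was Dual-Glo firefly luminescence.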

Activity change, positive = activation, inactive:
CCOc1ccc(NCc2cccn2-c2nnc(N3CCC(C(=O)NCc4ccc(C)cc4)CC3)s2)cc1 -52.2%
Cc1c(-c2ccc(O)cc2)n(Cc2ccc(OCCN3CCCCCC3)cc2)c2ccc(O)cc12
CCc1nnc(NC(=O)CSc2nccn2Cc2ccc(F)cc2)s1 -11.1%
COc1ccc2nc3oc(C(=O)N(C)c4ccc(Cl)cc4)cc3cc2c1 -5.59%
COc1ccc(N2CCN(CC(O)COc3ccc(C(C)C)c(C)c3)CC2)cc1 (centres undefined) 14.3% [at 11.5 µM, percent change from vehicle, -100% = no light]
COC(=O)c1c(NC(=O)c2nc(SCc3ccc(C)cc3)ncc2Cl)sc2c1CCCC2 10.4%
CCCCCNS(=O)(=O)c1ccc(N2CCCCS2(=O)=O)cc1 -21.9%
CCCN1C(=O)CN(C2CCCCC2)C(=O)C1c1ccc(OC)c(OC)c1 (centres undefined) -8.05%
COc1ccc(NC(=O)Cn2c(=O)n(CCC(=O)NCCc3ccc(OC)c(OC)c3)c(=O)c3ccccc32)cc1Cl -9.11%
O=C(NC1CC1)c1ccc(Cn2c(SCc3ccccc3F)nc3cccnc32)cc1 16.5%
COc1cccc([C@@H]2Nc3ccc(C(=O)O)cc3[C@@H]3C=CC[C@@H]32)c1OC -15.9%
Cc1ccc2c(=O)cc(C(=O)Nc3ccc(S(=O)(=O)Nc4onc(C)c4C)cc3)oc2c1 -5.21%
Cc1cccc(-n2ncc(C(=O)N3CCN(C(=O)c4ccco4)CC3)c2C2CCN(C(=O)OC(C)(C)C)CC2)c1 8.05%
CCSC1=NC2(CCN(C(=O)NC3CCCCC3)CC2)N=C1c1ccc(C)c(C)c1 -15.9%
CC(C=CC1=C(C)CCCC1(C)C)=CC=CC(C)=CC(=O)O
Cc1noc(C)c1S(=O)(=O)NCCc1csc2nc(-c3ccc(F)cc3)nn12 -29.5%
Cc1ccc(NC(=O)[C@H](Cc2ccccc2)N2Cc3ccccc3C2=O)cc1 -12.4%
CCOC(=O)c1c(NC(=O)c2cc3ccccc3c(=O)o2)sc2c1CCCC2 -10.6%
COc1ccc(OC)c(NC(=O)CCc2c(C)nc3c(-c4ccccc4)c(C)nn3c2C)c1 -29.1%
CCCN(CCC)CCNC(=O)c1cc(Sc2ccc(Cl)cc2)nc2ccccc12 -8.4%
Cc1cccc(CSCCNC(=O)CN(c2ccccc2)S(=O)(=O)N(C)C)c1 -15.1%
Cc1ccc(S(=O)(=O)c2cn(CC(=O)Nc3ccc4c(c3)OCO4)c3ccc(F)cc3c2=O)cc1 -5.18%
CC(=O)Nc1ccccc1-c1nc2ccccc2n(C(C)C(=O)c2ccc(C)c(C)c2)c1=O (centres undefined) -18.4%
CCOc1ccc(CC(=O)NC2CC(=O)N(c3ccc4c(c3)OCCO4)C2)cc1 (centres undefined) -12.6%
